# According to PubChem BioAssay AID624173 (National Center for Advancing Translational Sciences (NCATS), 2012):
# In all, about 410,000 compounds went through this assay and about 490 (0.12%) were called active. The inconclusive results got no clear call from the source; some entries with a clear call stand among them for comparison. Calls follow the shape of the dose curve; as a rule, active = well fitted inhibition curve with a large enough effect; inconclusive = small, poorly fitted or top-dose-only effect; inactive = flat fitted curve, though single readings scatter. Potencies of inconclusive entries are doubtful fits and often do not repeat.
# Biological target: pyruvate kinase (Trypanosoma brucei) (UniProt Q57TT1)
# Assay: qHTS of Trypanosoma Brucei Inhibitors; also: nearly all actives have a fitted effect of over 50% in size
# Conditions: TbPYK enzyme, Kinase-Glo Plus ATP luminescence, 45 min; series mostly up to 76.8 µM; activity, negative = inhibition: at the top concentration
# How it was run: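 Quantitative HTS: titrated library compounds versus trypanosomal pyruvate kinase in TEA buffer (pH 7.2) containing KCl, MgCl2, BSA and Tween-20. Reactions were initiated with ADP, 130 uM final. Kinase-Glo Plus luminescence was read after 45 min at RT.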
# % is scaled to controls: 0 for no effect and ±100 for the full control effect; potency is read from the fitted curve at half-maximal effect; tags tell the direction and shape of the fitted curve.
Structure (SMILES),Potency,"activity, negative = inhibition"
CCN1/C(=C/c2ccc3ccccc3[n+]2CCCS(=O)(=O)[O-])C=Cc2cc(C)ccc21,"inconclusive: 25.1 µM [inhibitor, partial curve, poor fit]",–
CN(Cc1ccco1)C(=O)CSc1nc(C2CC2)n(-c2ccccc2)n1,"inconclusive: 35.5 µM [inhibitor, partial curve, poor fit]",–
CC(C)Cc1nc2oc3c(Cl)ncnc3c2c2c1CCC2,–,inactive: 0.883%
COC(=O)C1CCN(C(=O)CSc2nc3ccc(OC)cc3[nH]2)CC1,–,inactive: -1.59%
O=C(O)c1cccnc1SC1CC(=O)N(Cc2ccccc2)C1=O (stereo not drawn),"inconclusive: 35.5 µM [inhibitor, single point]",–
S=c1[nH]nc(Cc2cccs2)n1-c1cccc2ccccc12,"inconclusive: 2.24 µM [inhibitor, full curve, poor fit]",–
CC1(C)Cc2c(c(N3CCOCC3)nc3sc(C(=O)N4CCCCC4)c(N)c23)CO1,"inconclusive: 11.2 µM [inhibitor, partial curve, poor fit]",–
CCOC(=O)c1c(NC(=O)C2CC=CCC2C(=O)O)sc(C)c1CC (stereo not drawn),"inconclusive: 35.5 µM [inhibitor, partial curve, poor fit]",–
CC1=NN(c2ccccc2)C(=O)/C1=C/C=C/c1ccc(N(C)C)cc1,"inconclusive: 35.5 µM [inhibitor, partial curve, poor fit]",–
CCN(CC)c1ncnc2c1ncn2[C@H]1CN(CCOC)C[C@@H](CO)O1,–,inactive: -9.34%
Cc1ccc(S(=O)(=O)n2c([N+](=O)[O-])cnc2C)c(C)c1C,"inconclusive: 31.6 µM [inhibitor, partial curve]",–
Nc1nc2ccc([N+](=O)[O-])c(N)c2s1,"inconclusive: 25.1 µM [inhibitor, partial curve]",–
O=C(CCSCCC(=O)NCc1ccco1)NCc1ccco1,"inconclusive: 15.8 µM [inhibitor, partial curve, poor fit]",–
Cc1cc(N2CCCC2)ccc1NC(=O)CN1C(=O)NC(C)(c2ccccc2)C1=O (stereo not drawn),"inconclusive: 28.2 µM [inhibitor, partial curve, poor fit]",–
O=C(c1ccncc1)N1CCC2(CCCN(c3ccc(-c4ccccc4)cc3)C2)CC1,–,inactive: 0.947%
CC(=O)Nc1nc(C)c(-c2csc(Nc3ccccn3)n2)s1,inactive,–
CCOc1ccc(/C=N/n2c(-c3ccccc3)n[nH]c2=S)cc1,"inconclusive: 4.47 µM [inhibitor, partial curve, poor fit]",–
O=c1c2c([N+](=O)[O-])cc([N+](=O)[O-])cc2sn1Cc1ccccc1,active: 1.58 µM,–
COC(=O)CSc1nc2ccc(C)cc2cc1C#N,–,inactive: 2.28%
O=C(OCC(=O)N1c2ccccc2Sc2ccccc21)C1CC(=O)N(Cc2ccco2)C1 (stereo not drawn),–,inactive: -0.192%
COC(=O)C1=Nc2ccccc2/C1=C\c1c(O)n(-c2cc(OC)ccc2OC)c(=O)[nH]c1=O,"inconclusive: 35.5 µM [inhibitor, partial curve, poor fit]",–
CC(C)Oc1ccc(C(=O)Nc2ccc(N(C)C)cc2)cc1,"inconclusive: 35.5 µM [inhibitor, partial curve, poor fit]",–

Structure (SMILES),Potency,"activity, negative = inhibition"
CC(NC(=O)C(=O)Nc1c2c(nn1-c1ccccc1)CSC2)c1ccccc1 (stereo not drawn),–,inactive: -0.798%
COc1ccc(CCNC(=O)CCCn2c(=S)[nH]c3ccsc3c2=O)cc1OC,"inconclusive: 39.8 µM [inhibitor, single point]",–
COc1cccc([C@@H]2Nc3ccc(C(=O)O)cc3[C@@H]3C=CC[C@@H]32)c1OC,"inconclusive: 44.7 µM [inhibitor, single point]",–
O=c1[nH]c(=O)c2[nH]c(=S)n(-c3ccccc3)c2[nH]1,"inconclusive: 12.6 µM [inhibitor, partial curve, poor fit]",–
CS(=O)(=O)N1CCN(c2ccc(NC(=O)c3ccc([N+](=O)[O-])o3)cc2)CC1,–,inactive: 1.23%
CCCCN(C)C(=O)c1cc2cc3ccc(OC)cc3nc2s1,"inconclusive: 31.6 µM [inhibitor, single point]",–
COc1cccc(/C=C/C(=O)OCC(=O)c2c[nH]c3ccccc23)c1OC,–,inactive: -13%
COc1cc2ccc(=O)oc2c(O)c1O,"inconclusive: 35.5 µM [inhibitor, partial curve, poor fit]",–
Cc1ccc(Oc2nc3ccccn3c(=O)c2/C=C(\C#N)c2nc3ccccc3s2)c(C)c1,"inconclusive: 2.51 µM [inhibitor, full curve, poor fit]",–
Cc1cc(NC(=O)c2ccco2)ccc1-n1cnnn1,–,inactive: 2.52%
O=C1c2ccccc2C(=O)N1/N=C/c1ccc(O)c(O)c1O,"inconclusive: 12.6 µM [inhibitor, partial curve, poor fit]",–
Cc1ccc(C)c(-n2c(-c3csc(C)c3)n[nH]c2=S)c1,"inconclusive: 5.01 µM [inhibitor, partial curve, poor fit]",–
O=C1C(=Cc2ccco2)CCC1=Cc1ccco1,"inconclusive: 17.8 µM [inhibitor, partial curve]",–
COc1ccc2[nH]c3c(=O)n(CCCCC(=O)N4CCC(C(N)=O)CC4)c(=S)[nH]c3c2c1,active: 6.31 µM,–
O=c1oc2cc(O)ccc2cc1-c1ccc(F)cc1,"inconclusive: 35.5 µM [inhibitor, single point]",–
CCOC(=O)c1scc(-c2ccccc2)c1S(=O)(=O)N1CCN(c2ccccc2OC)CC1,"inconclusive: 15.8 µM [inhibitor, partial curve, poor fit]",–
O=C(Nc1ccccc1C(=O)N/N=C/c1ccncc1)c1ccccc1,"inconclusive: 25.1 µM [inhibitor, partial curve]",–
COc1cc(/C=N/Nc2ccc(S(N)(=O)=O)cc2)cc(OC)c1OC,"inconclusive: 2.24 µM [inhibitor, partial curve, poor fit]",–
C=C(C)CN(CC)C(=O)CC1C(=O)NCCN1CC(C)(C)C (stereo not drawn),–,inactive: 2.52%
Oc1cc2ccccc2cc1-c1n[nH]c(=S)o1,"inconclusive: 31.6 µM [inhibitor, partial curve]",–
COc1cc(OC)cc(C(=O)NCc2n[nH]c(=S)n2-c2ccccc2)c1,"inconclusive: 11.2 µM [inhibitor, partial curve]",–
